{
  "source": "PubChem BioAssay AID504333",
  "about": "(National Center for Advancing Translational Sciences (NCATS), 2011)",
  "note": "Hit rate of the full screen: of about 360,000 compounds, about 16,000 (4.4%) were called active. Inconclusive means that the source gave no clear call. Such entries were picked first, then a sample of the others. The call rests on the fitted dose curve; in most records, active means well fitted inhibition curve with a large enough effect; inconclusive means small, poorly fitted or top-dose-only effect; inactive means no such curve, though single readings can be large or run the other way. Potencies beside an inconclusive call are fits to weak or partial responses and may not hold up. On the % scale 0 is the no-effect control and ±100 the full control effect; potency means the concentration at half of the fitted maximal effect; tags describe the fitted curve by direction and shape.",
  "data": [
    {"target": "Bromodomain adjacent to zinc finger domain protein 2B (Homo sapiens) (UniProt Q9UIF8)", "sequence (Q9UIF8 whole entry, looked up, the tested form may be a part)": "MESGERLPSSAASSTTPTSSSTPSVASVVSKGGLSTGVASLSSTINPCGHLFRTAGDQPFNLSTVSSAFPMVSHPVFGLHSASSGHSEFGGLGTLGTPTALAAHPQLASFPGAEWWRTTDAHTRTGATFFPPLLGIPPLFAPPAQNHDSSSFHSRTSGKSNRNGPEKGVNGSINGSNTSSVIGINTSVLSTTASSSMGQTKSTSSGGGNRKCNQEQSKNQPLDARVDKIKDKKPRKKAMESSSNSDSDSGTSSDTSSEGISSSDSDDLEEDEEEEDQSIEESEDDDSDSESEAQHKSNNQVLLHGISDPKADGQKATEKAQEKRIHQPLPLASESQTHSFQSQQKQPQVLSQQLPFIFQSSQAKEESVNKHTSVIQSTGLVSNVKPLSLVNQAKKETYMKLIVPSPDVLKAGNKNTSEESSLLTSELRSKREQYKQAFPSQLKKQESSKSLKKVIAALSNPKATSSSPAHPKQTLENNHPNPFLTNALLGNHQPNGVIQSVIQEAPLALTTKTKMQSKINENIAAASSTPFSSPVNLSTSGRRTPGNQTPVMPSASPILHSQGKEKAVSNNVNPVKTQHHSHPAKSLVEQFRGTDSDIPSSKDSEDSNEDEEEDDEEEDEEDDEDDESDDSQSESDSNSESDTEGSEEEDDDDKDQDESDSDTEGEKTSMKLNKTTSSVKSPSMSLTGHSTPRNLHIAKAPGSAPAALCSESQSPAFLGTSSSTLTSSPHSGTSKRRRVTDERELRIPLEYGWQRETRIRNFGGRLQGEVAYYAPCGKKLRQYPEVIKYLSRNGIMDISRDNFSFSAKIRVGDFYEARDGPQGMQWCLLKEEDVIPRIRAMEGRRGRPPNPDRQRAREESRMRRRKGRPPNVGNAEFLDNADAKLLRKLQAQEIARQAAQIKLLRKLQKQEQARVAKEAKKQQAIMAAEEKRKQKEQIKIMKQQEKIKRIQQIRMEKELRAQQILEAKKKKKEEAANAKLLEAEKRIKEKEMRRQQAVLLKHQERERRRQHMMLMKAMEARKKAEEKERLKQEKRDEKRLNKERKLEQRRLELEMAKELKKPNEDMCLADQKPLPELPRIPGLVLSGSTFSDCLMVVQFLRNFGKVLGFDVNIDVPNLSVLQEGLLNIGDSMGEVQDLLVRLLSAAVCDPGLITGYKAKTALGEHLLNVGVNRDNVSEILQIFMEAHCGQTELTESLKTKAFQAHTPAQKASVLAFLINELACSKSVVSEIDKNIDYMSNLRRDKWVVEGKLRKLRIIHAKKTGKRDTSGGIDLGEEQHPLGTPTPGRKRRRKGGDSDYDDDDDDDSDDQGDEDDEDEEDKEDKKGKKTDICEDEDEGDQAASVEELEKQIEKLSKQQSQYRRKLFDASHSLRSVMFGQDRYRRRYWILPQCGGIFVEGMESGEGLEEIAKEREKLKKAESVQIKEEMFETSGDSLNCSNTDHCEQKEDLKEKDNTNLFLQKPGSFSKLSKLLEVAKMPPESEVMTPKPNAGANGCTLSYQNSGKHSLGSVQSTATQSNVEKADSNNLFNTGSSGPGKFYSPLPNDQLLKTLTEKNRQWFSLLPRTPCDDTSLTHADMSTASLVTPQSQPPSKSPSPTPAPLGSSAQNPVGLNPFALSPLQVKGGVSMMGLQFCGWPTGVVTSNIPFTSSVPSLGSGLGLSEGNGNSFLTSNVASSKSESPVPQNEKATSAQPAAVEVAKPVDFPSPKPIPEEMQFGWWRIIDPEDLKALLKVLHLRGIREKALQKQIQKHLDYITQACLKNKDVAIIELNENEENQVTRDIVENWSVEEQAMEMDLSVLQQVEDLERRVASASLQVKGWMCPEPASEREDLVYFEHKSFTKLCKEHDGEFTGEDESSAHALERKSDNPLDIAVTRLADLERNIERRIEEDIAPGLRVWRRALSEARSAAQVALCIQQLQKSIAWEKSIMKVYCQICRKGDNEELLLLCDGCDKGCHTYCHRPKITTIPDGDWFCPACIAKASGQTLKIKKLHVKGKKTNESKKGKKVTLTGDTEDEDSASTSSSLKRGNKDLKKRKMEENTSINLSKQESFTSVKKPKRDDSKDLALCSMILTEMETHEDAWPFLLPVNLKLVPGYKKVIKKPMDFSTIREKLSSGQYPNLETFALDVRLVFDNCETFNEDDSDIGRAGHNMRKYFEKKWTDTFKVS", "experiment": "qHTS Assay for Inhibitors of BAZ2B; further: nearly all actives have a fitted effect of over 60% in size", "details": "AlphaScreen BAZ2B-H3K14Ac peptide displacement; activity change, negative = inhibition: at 114 µM (top of the series) unless noted", "summary_of_the_method": "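In this displacement format the biotinylated H3(5-23) peptide acetylated at Lys14 serves as ligand at 50 nM, with BAZ2B at 50 nM in PBS pH 7.4 containing 0.01% Tween-20. Donor and acceptor beads are 10 ug/mL final.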", "values": [
      {"smiles": "COC(=O)CCc1ccc(O)cc1", "activity change, negative = inhibition": "inactive: -4.26%"},
      {"smiles": "CCCn1c(=O)c(C(=O)Nc2cccc(C)n2)c(O)c2ccccc21", "Potency": "inconclusive: 100 µM [inhibitor, single point]"},
      {"smiles": "COC(=O)C1=C(C(=O)OC)[C@@H]2N(Cc3ccccc3)c3ccccc3[C@@]23C[C@@H](C(=O)OC)N(C(C)=O)C3=N1", "Potency": "inconclusive: 15.8 µM [inhibitor, partial curve, poor fit]"},
      {"smiles": "O=C1NN(c2ccccc2)C(=O)/C1=C/c1cccs1", "Potency": "inconclusive: 79.4 µM [inhibitor, single point]"},
      {"smiles": "N#Cc1c(-c2cccc(Br)c2)cc(-c2ccco2)[nH]c1=O", "Potency": "active: 44.7 µM"},
      {"smiles": "O=S(=O)(NCC(c1ccco1)N1CCc2ccccc21)c1ccccc1", "note": "(stereo not given)", "Potency": "active: 39.8 µM"},
      {"smiles": "CC(C)(C)OC(=O)N[C@@H](Cc1ccccc1)C(=O)NCC1CCC(C(=O)N[C@@H](CC(=O)O)C(=O)O)CC1", "note": "(stereo not given in full)", "Potency": "inconclusive: 89.1 µM [inhibitor, single point]"},
      {"smiles": "O=C(COC(=O)c1ccc(S(=O)(=O)N2CCCC2)cc1)NCc1ccco1", "Potency": "inconclusive: 50.1 µM [inhibitor, partial curve]"},
      {"smiles": "COc1ccc(-c2nc(CN3CCN(Cc4ccccc4)CC3)c(C)o2)cc1", "Potency": "inconclusive: 89.1 µM [inhibitor, single point]"},
      {"smiles": "Cc1cc(C)c(Nc2cc(S(=O)(=O)O)c(N)c3c2C(=O)c2ccccc2C3=O)c(C)c1", "Potency": "active: 5.62 µM"},
      {"smiles": "COc1ccc(CN2CCCC(N3CCN(c4ccc(OC)cc4)CC3)C2)cc1", "note": "(stereo not given)", "Potency": "inconclusive: 50.1 µM [inhibitor, partial curve]"},
      {"smiles": "CC1(C)N([O-])c2cc([N+](=O)[O-])ccc2[N+]1=O", "Potency": "inconclusive: 50.1 µM [inhibitor, partial curve]"},
      {"smiles": "CSc1ccc(NC(=O)Nc2ccc(C(=O)NCC(=O)O)cc2)cc1", "Potency": "active: 50.1 µM"},
      {"smiles": "CCCC[C@@H]1CNCCN1CCc1cc(C(F)(F)F)cc(C(F)(F)F)c1", "activity change, negative = inhibition": "inactive: -8.64%"},
      {"smiles": "O=C(Nc1ccnn1C1CCN(Cc2ccc(OC(F)F)cc2)CC1)C1CCCC1", "activity change, negative = inhibition": "inactive: -37.7%"},
      {"smiles": "Nc1nc(C2C(=O)CCCC2=O)cs1", "Potency": "active: 44.7 µM"},
      {"smiles": "Cc1cc(C)c(S(=O)(=O)NCCCn2ccnc2)cc1C", "Potency": "inconclusive: 89.1 µM [inhibitor, single point]"},
      {"smiles": "COc1ccc(CCn2c(=N)c(C(=O)NCCN3CCOCC3)cc3c(=O)n4cccc(C)c4nc32)cc1OC", "Potency": "inconclusive: 28.2 µM [inhibitor, full curve]"},
      {"smiles": "c1ccc(C2Nc3cccc4cccc(c34)N2)cc1", "Potency": "inconclusive: 56.2 µM [inhibitor, partial curve, poor fit]"},
      {"smiles": "Cc1ccc(CNC(=O)C(Cc2ccccc2)n2cccc2)cc1", "note": "(stereo not given)", "Potency": "inconclusive: 39.8 µM [inhibitor, partial curve]"},
      {"smiles": "c1ccc2c(c1)oc1c(NCCCn3ccnc3)ncnc12", "Potency": "inconclusive: 89.1 µM [inhibitor, single point]"},
      {"smiles": "CCOC(=O)Cc1csc(NC(=O)Cc2cccs2)n1", "Potency": "active: 50.1 µM"},
      {"smiles": "O=C(NCC1CCCO1)/C(=C\\c1ccco1)NC(=O)c1ccc(Cl)cc1", "note": "(stereo not given)", "activity change, negative = inhibition": "inactive: -32%"},
      {"smiles": "Cc1ccc(NC(=O)CN(C)CC(=O)Nc2ccc(N3CCOCC3)cc2)c(C)c1", "Potency": "inconclusive: 79.4 µM [inhibitor, partial curve]"},
      {"smiles": "COCCCN1C(=O)C(O)=C(C(C)=O)C1c1cccc(F)c1", "note": "(stereo not given)", "Potency": "inconclusive: 89.1 µM [inhibitor, single point]"},
      {"smiles": "CCc1ccccc1NC(=O)c1cc(S(=O)(=O)N(C)C)ccc1N1CCCC1", "activity change, negative = inhibition": "inactive: -5%"},
      {"smiles": "Cc1ccc(-n2c(C)cc(C(=O)COc3cccnc3[N+](=O)[O-])c2C)cc1", "Potency": "inconclusive: 39.8 µM [inhibitor, partial curve]"},
      {"smiles": "Cc1cc(C)c2c(=O)n(CC(=O)Nc3ccc(Br)c(C)c3)sc2n1", "Potency": "inconclusive: 50.1 µM [inhibitor, partial curve]"},
      {"smiles": "COc1cc(NS(=O)(=O)c2ccc(NC(=O)c3cccs3)cc2)nc(OC)n1", "activity change, negative = inhibition": "inactive: -14.6%"},
      {"smiles": "CC1=NN(c2ccccc2)C(=O)/C1=C/c1cc2cc(C)ccc2nc1N1CCCCC1", "Potency": "active: 8.91 µM"},
      {"smiles": "COc1cccc(C(=O)NCC(=O)OCC(=O)Nc2ncc(Cl)cc2Cl)c1", "Potency": "inconclusive: 56.2 µM [inhibitor, partial curve]"},
      {"smiles": "COc1ccc(N2CCN(S(=O)(=O)c3c(C)[nH]c(C)c3C(=O)N3CCCCC3)CC2)cc1", "Potency": "inconclusive: 79.4 µM [inhibitor, single point]"},
      {"smiles": "COc1ccccc1CCNC(=O)CSc1ccc(-c2ccco2)nn1", "Potency": "active: 50.1 µM"},
      {"smiles": "CCOc1ccc(CCNC(=O)CCc2cn(Cc3ccc(C)cc3)c3ccccc23)cc1", "Potency": "inconclusive: 70.8 µM [inhibitor, single point]"},
      {"smiles": "COc1ccc(N2CCN(C(c3cccs3)C(C)NC(=O)c3ccco3)CC2)cc1", "note": "(stereo not given)", "Potency": "inconclusive: 50.1 µM [inhibitor, partial curve]"},
      {"smiles": "O=C(CC1S/C(=N/N=C/C=C/c2ccccc2)NC1=O)Nc1ccc(C(=O)O)cc1", "note": "(stereo not given)", "Potency": "active: 79.4 µM"},
      {"smiles": "N/C(Cn1cncn1)=N\\NC(=O)C(=O)Nc1ccccc1", "Potency": "inconclusive: 3.16 µM [inhibitor, full curve, poor fit]"},
      {"smiles": "CC1CC(C)CN(CC(=O)NNC(=O)COc2ccc(Cl)cc2)C1", "note": "(stereo not given)", "Potency": "inconclusive: 89.1 µM [inhibitor, single point]"},
      {"smiles": "COc1ccccc1CN1C[C@@H]2C[C@@H](c3cccc(C)n3)N3CCC[C@@]23C1=O", "activity change, negative = inhibition": "inactive: -13.2%"},
      {"smiles": "COc1ccc(-c2nc(C#N)c(NCCCn3ccnc3)o2)cc1OC", "Potency": "inconclusive: 89.1 µM [inhibitor, single point]"},
      {"smiles": "O=C1Nc2c(c(=O)[nH]c(=O)n2Cc2ccccc2)C1(NS(=O)(=O)c1ccccc1)C(F)(F)F", "note": "(stereo not given)", "activity change, negative = inhibition": "inactive: -0.959%"},
      {"smiles": "C=CCOc1ccc(Cl)cc1C(=O)O", "activity change, negative = inhibition": "inactive: -3.26%"},
      {"smiles": "c1ccc2c(OCCCN3CCCCCC3)cccc2c1", "Potency": "active: 56.2 µM"},
      {"smiles": "COc1ccc(/C=C/C(=O)OCn2c(SC)nnc(C)c2=O)cc1OC", "activity change, negative = inhibition": "inactive: -5.79%"},
      {"smiles": "CCc1nnc(NS(=O)(=O)c2ccc(NC(=S)NC(=O)/C=C/c3ccc([N+](=O)[O-])cc3)cc2)s1", "Potency": "inconclusive: 89.1 µM [inhibitor, single point]"}
    ]}
  ]
}
